# Reference: PubChem BioAssay AID886 (National Center for Advancing Translational Sciences (NCATS), 2007)
# Where “and” joins values, the source holds several entries; their conditions need not be identical. Equal values may be shown once. Hit rate of the full screen: of about 73,000 compounds, about 2,500 (3.4%) were called active. The inconclusive results got no clear call from the source; some entries with a clear call stand among them for comparison. Calls come from the whole dose curve; as a rule, active = well fitted inhibition curve with a large enough effect; inconclusive = small, poorly fitted or top-dose-only effect; inactive = no such curve, though single readings can be large or run the other way. Potencies beside an inconclusive call are fits to weak or partial responses and may not hold up.
# Target: 3-hydroxyacyl-CoA dehydrogenase type-2 (Homo sapiens) (UniProt Q99714)
# Sequence of UniProt Q99714 (Q99714 whole entry, looked up): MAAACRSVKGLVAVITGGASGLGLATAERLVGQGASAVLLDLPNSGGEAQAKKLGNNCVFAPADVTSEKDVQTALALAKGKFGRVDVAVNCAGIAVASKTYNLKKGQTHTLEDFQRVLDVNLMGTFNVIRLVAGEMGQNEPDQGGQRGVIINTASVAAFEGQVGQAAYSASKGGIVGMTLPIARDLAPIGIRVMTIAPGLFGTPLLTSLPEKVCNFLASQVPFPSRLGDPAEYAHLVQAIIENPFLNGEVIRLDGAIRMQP
# Sequence of UniProt Q99714 (Q99714 whole entry, looked up): as above
# Test: qHTS Assay for Inhibitors of HADH2 (Hydroxyacyl-Coenzyme A Dehydrogenase, Type II); note: nearly all actives have a fitted effect of over 60% in size
# Conditions: recombinant HADH2, NADH fluorescence, beta-hydroxybutyryl-CoA; activity change, negative = inhibition: at 57.1 µM (top of the series)
# Summary of the method: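 E. coli-expressed His-tagged HADH2 tested at 20 nM in alkaline Tris buffer (pH 9.0); oxidation of 90 uM beta-hydroxybutyryl-CoA with 1 mM NAD+ tracked fluorimetrically for 4 min.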
# % is set by controls: 0 for no effect and ±100 for the full control effect; potency is the fitted concentration of half-maximal effect; tags give direction and shape of the fitted curve.
Structure (SMILES),Potency,"activity change, negative = inhibition"
COc1ccc(-c2cc(C(=O)N3CCN(C(c4ccccc4)c4ccccc4)CC3)no2)cc1OC,inactive,–
Cc1ccc(C)n1-c1ccc(N2CCOCC2)cc1,"inconclusive: 12.6 µM [inhibitor, partial curve]",–
CCOC(=O)c1cnc(SCC(=O)N2CCc3ccccc32)nc1N,"inconclusive: 20 µM [inhibitor, single point]",–
CC1CCC2C(=O)N3C(CCC(C)C3c3ccc(-c4ccco4)cc3)C(=O)N2C1c1ccc(-c2ccco2)cc1 (centres undefined),active: 3.16 µM,–
O=C(CN1C(=O)c2ccccc2C1=O)Nc1nnc(C2CCCO2)s1 (centres undefined),"inconclusive: 7.94 µM [inhibitor, single point]",–
Nc1ccc(O)cc1,active: 3.16 µM,–
Cc1ccc(OCCCC(=O)Nc2ccc(S(=O)(=O)Nc3cc(C)on3)cc2)cc1,"inconclusive: 20 µM [inhibitor, partial curve]",–
CCC(C)C(=O)Nc1nnc(-c2cccs2)s1 (centres undefined),active: 25.1 µM,–
CCN1CCN(c2nc(C)nc3c2sc(=S)n3C)CC1,active: 7.94 µM,–
O=c1c2ccccc2nc(-c2ccccc2)n1CCCN1CCOCC1,inactive,–
CCc1ccc2oc(-c3cc(N=Cc4cccc(OC)c4O)ccc3O)nc2c1,inactive,–
O=C(O)CSc1ccc(N=C=S)cc1,"inconclusive: 3.16 µM [inhibitor, single point]",–
CCOC(=O)C1CCCN(C2CC(=O)N(c3cccc(C(F)(F)F)c3)C2=O)C1 (centres undefined),"inconclusive: 1 µM [inhibitor, full curve, poor fit]",–
O=C1C=C[C@@H](O)[C@H]2[C@@H]3C(=O)N(Cc4ccccc4)C(=O)[C@@H]3CC[C@H]12,–,inactive: -1.04% [at 11.4 µM]
Cc1ccc(-n2[nH]c(C)c(/C=N/n3c(C)nc4ccccc4c3=O)c2=O)cc1,inactive,–
N#CCCn1c(=O)c(-c2cccs2)nc2cnc(N3CCNCC3)nc21,inactive,–
CCOC(=O)N1CC=C2C(C#N)=C(N)C(C#N)(C#N)[C@H](c3ccc(OC(C)C)c(OCC)c3)[C@H]2C1,inactive,–
Cc1ccccc1Nc1ncnc2c1cnn2-c1ccccc1,"inconclusive: 39.8 µM [inhibitor, single point]",–
c1ccc2oc(SCc3cn4ccccc4n3)nc2c1,inactive,–
CC(C)NC(=O)c1ccc2c(c1)N(CC(=O)N1CCOCC1)C(=O)C(C)(C)O2,inactive,–
Cc1ccc(S(=O)(=O)NC2OC(=O)C(Cl)=C2Cl)cc1 (centres undefined),"inconclusive: 39.8 µM [inhibitor, single point]",–
CCN(Cc1ccncc1)S(=O)(=O)c1ccc(C(C)=O)cc1,"inconclusive: 7.94 µM [inhibitor, full curve]",–
O=C(CSc1nnc(-c2ccccn2)n1Cc1ccco1)c1ccc(-c2ccccc2)cc1,"inconclusive: 39.8 µM [inhibitor, single point]",–
Fc1ccc(Nc2ncncc2-c2ccccc2C(F)(F)F)cc1,"inconclusive: 25.1 µM [inhibitor, single point]",–
Cc1cccc(-n2nnnc2SCn2nnc3ccccc3c2=O)c1,"inconclusive: 1.26 µM [inhibitor, single point]",–

Structure (SMILES),Potency,"activity change, negative = inhibition"
O=C(Cn1cccc1)Nc1ccc(OC(F)(F)F)cc1,inactive,–
Cc1noc(C)c1CSc1nc2ccccc2s1,"inconclusive: 20 µM [inhibitor, single point]",–
COc1cc(Cn2c(N)c(C#N)c3nc4ccccc4nc32)cc(OC)c1,active: 25.1 µM,–
O=C(Nc1ccc(N2CCOCC2)cc1)C1CC1,inactive,–
CCOc1ccccc1C1C(C#N)=C(N)Oc2cc(C)n(Cc3ccccn3)c(=O)c21 (centres undefined),"inconclusive: 39.8 µM [inhibitor, single point]",–
CC(=O)CC1(C)OC(N)=C(C#N)C1(C#N)C#N (centres undefined),"inconclusive: 39.8 µM [inhibitor, single point]",–
CC(=O)N[C@@H](C(=O)O)C(C)(C)SN=O,inactive,–
CC(CC1C(C#N)=C(N)SC(N)=C1C#N)c1ccccc1 (centres undefined),active: 31.6 µM,–
C=CCn1c(-c2cccs2)nc2ccccc21,active: 31.6 µM,–
Cn1c(/N=C/c2c(O)ccc3ccccc23)nc2ccccc21,active: 3.98 µM,–
O=c1c(-c2ccccc2)nc2cnc(Oc3ccccc3)nc2n1C[C@H]1CCCO1,inactive,–
COC(=O)C/C=C\[C@H](C)[C@@H](OCc1ccccc1Br)C(C)C,–,inactive: -6.15% [at 11.4 µM]
Cc1cc(C)c2c(c1)-c1c(ssc1=S)C(C)(C)N2C(=O)CSc1nncn1C,"inconclusive: 1.58 µM [inhibitor, partial curve]",–
COc1cccc(CC(NC(C)=O)C(=O)NC2CCN(c3nc(C)cc(C)c3C#N)CC2)c1 (centres undefined),"inconclusive: 39.8 µM [inhibitor, single point]",–
CCCc1cc(N2CCN(c3ccccn3)CC2)n2nc(C)c(-c3ccccc3)c2n1,"inconclusive: 31.6 µM [inhibitor, single point]",–
Nc1nc(SCC(=O)c2ccc(Oc3ccccc3)cc2)n[nH]1,"inconclusive: 31.6 µM [inhibitor, single point]",–
Oc1cc2c(cc1O)CN(C(=S)NCCc1ccc(Cl)cc1)CCC2,active: 1.58 µM and active: 631 nM,–
CCOC(=O)CCN1C(=O)[C@H]2[C@H]3[C@H](O)[C@H](O)C/C(=N/OC[C@@H](O)COCc4ccco4)[C@@H]3CC[C@@H]2C1=O,–,inactive: -9.41% [at 11.4 µM]
Nc1c(C(=O)N2CCCCC2)sc(=S)n1-c1ccccc1,active: 0.794 µM,–
C[C@@]12CCC(=O)C=C1CC[C@H]1[C@H]3CC[C@](O)(C(=O)CO)[C@]3(C)CC[C@@H]12,"inconclusive: 39.8 µM [inhibitor, single point]",–
Cc1[nH]c2ccccc2c1-c1nc2ccccc2[nH]1,"inconclusive: 31.6 µM [inhibitor, single point]",–
O=C(Nc1c(F)cc(F)cc1Br)c1cc(-c2ccc(O)cc2)on1,"inconclusive: 15.8 µM [inhibitor, partial curve]",–
COc1ccc(-c2nc3nc(C)cc(C)n3n2)cc1,"inconclusive: 31.6 µM [inhibitor, single point]",–
COc1ccccc1NC(=O)c1oc2ccc(C)cc2c1C,"inconclusive: 31.6 µM [inhibitor, single point]",–
Cc1ccc2oc(-c3ccco3)nc2c1,"inconclusive: 39.8 µM [inhibitor, single point]",–

Structure (SMILES),Potency,"activity change, negative = inhibition"
CN1CCN(c2cc(-c3ccoc3)ncn2)CC1,"inconclusive: 25.1 µM [inhibitor, partial curve]",–
CCOC(=O)c1c(NC(=O)c2cccs2)sc2c1CC(C)(C)OC2,"inconclusive: 39.8 µM [inhibitor, single point]",–
CC(=O)c1cccc(NC2c3ncccc3C(=O)N2Cc2ccco2)c1 (centres undefined),"inconclusive: 25.1 µM [inhibitor, partial curve]",–
FC(F)(F)c1cc(-c2cccs2)nc(N2CCOCC2)n1,"inconclusive: 31.6 µM [inhibitor, single point]",–
Cc1ccc(N=Cc2cccc(O)c2O)c(C)c1,active: 1 µM,–
CCOC(=O)C1CCN(C(=O)Nc2ccc3nc(-c4ccco4)c(-c4ccco4)nc3c2)CC1,active: 6.31 µM,–
COc1ccc(OC)c(-c2cc(C(=O)Nc3c(C)nn(Cc4ccccc4)c3C)no2)c1,"inconclusive: 39.8 µM [inhibitor, single point]",–
CCN(CC)CCCNC(=O)c1cn(CCOC)c(=O)c2c1c1ccccc1n2C,"inconclusive: 39.8 µM [inhibitor, single point]",–
Nc1nc2c(c(=O)[nH]1)N(C=O)[C@H](CNc1ccc(C(=O)N[C@@H](CCC(=O)O)C(=O)O)cc1)CN2,inactive,–
COCCNc1nc(C)nc2c1nc(-c1ccccc1)n2CCN(C)C,"inconclusive: 39.8 µM [inhibitor, single point]",–
CC(=O)NCCNc1nc(-c2ccc(N(C)C)cc2)nc2ccccc12,inactive,–
Cc1ccccc1OCc1nc(-c2ccc(-n3cccc3)cc2)no1,"inconclusive: 31.6 µM [inhibitor, single point]",–
O=C(O)CCCNc1cc(N2CCC3(CC2)OCCO3)c2noc3c2c1C(=O)c1ccccc1-3,"inconclusive: 15.8 µM [inhibitor, partial curve]",–
Cc1ccccc1-c1nc(-n2ccnc2)c2ccccc2n1,"inconclusive: 25.1 µM [inhibitor, single point]",–
CC(c1ccccc1)n1cc(C(=O)NCc2ccncc2)nn1 (centres undefined),inactive,–
C=CCn1cnc2c(c1=O)c1nc3ccccc3nc1n2/N=C/c1cccc(OC)c1OC,inactive,–
COc1ccc(Cc2nnc(NC(=O)c3ccco3)s2)cc1OC,inactive,–
COc1ccc(-c2nc(C#N)c(NCCc3ccccc3)o2)cc1,active: 25.1 µM,–
COC(=O)Cc1c(C)nc2nc(-c3ccc(OC)cc3)[nH]n2c1=O,"inconclusive: 2 µM [inhibitor, partial curve]",–
Cc1ccc2[nH]c3nc(SCCN4CCOCC4)nnc3c2c1,inactive,–
Cc1cc(C(F)F)n2nc(C(=O)Nc3ccc(S(=O)(=O)N4CCCC4)cc3)nc2n1,"inconclusive: 31.6 µM [inhibitor, single point]",–
COc1ccc(OCC(=O)Nc2cccc(-c3nc4ccccc4o3)c2)cc1,"inconclusive: 5.01 µM [inhibitor, single point]",–
Cc1nc2cnc(N3CCNCC3)nc2n(Cc2ccc(F)cc2)c1=O,inactive,–
COc1ccc(O[C@H]2C=C[C@@H](c3ccccc3)O[C@H]2COC(=O)N2CCCCC2)cc1,"inconclusive: 7.94 µM [inhibitor, single point]",–
